Laboratory results taken from PubChem BioAssay AID1345082 (National Center for Advancing Translational Sciences (NCATS), 2018).
Out of some 94,000 compounds screened, about 4,000 (4.3%) were called active. The inconclusive results got no clear call from the source; some entries with a clear call stand among them for comparison. Calls come from the whole dose curve; as a rule, active = well fitted inhibition curve with a large enough effect; inconclusive = small, poorly fitted or top-dose-only effect; inactive = no such curve, though single readings can be large or run the other way. Potencies of inconclusive entries are doubtful fits and often do not repeat.

Assay: Cytotoxic Profiling in NIH 3T3 Cell Line of Diverse Libraries Using Quantitative High-Throughput Screening; note: nearly all actives have a fitted effect of over 55% in size
Conditions: NIH 3T3 viability, CellTiter-Glo ATP luminescence, 48-72 h; activity change, negative = cytotoxicity: at 96.7 µM (top of the series) unless noted; series mostly up to 96.7 µM
Procedure, shortened: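 Cytotoxicity was measured by CellTiter-Glo ATP luminescence after 48 or 72 h compound exposure at 37 °C. Mouse NIH 3T3 fibroblasts were seeded at 400 cells/well and dosed by 23 nL pin transfer.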
% is set by controls: 0 for no effect and ±100 for the full control effect; potency is the fitted concentration of half-maximal effect; tags give direction and shape of the fitted curve.

| Compound | activity change, negative = cytotoxicity | Potency | outcome |
| --- | --- | --- | --- |
| Cn1nccc1CN1CCCC2(CC(c3cccc(C(F)(F)F)c3)=NO2)C1 (stereo not given) | inactive: -26.2% |  |  |
| O=C1c2cnc(-c3ccc(O)c(F)c3)nc2OCCN1Cc1ccccc1 |  | inconclusive: 4.47 µM [inhibitor, full curve, poor fit] |  |
| CCN(CC)C(=O)CCc1c(C)nn(-c2cccc(C)c2)c1Oc1ccccc1 |  | inconclusive: 44.7 µM [inhibitor, partial curve, poor fit] |  |
| O=C(NC1CC1)c1ccccc1OC1CN(Cc2ccc(F)c(F)c2)C1 |  | inconclusive: 50.1 µM [inhibitor, partial curve, poor fit] |  |
| CCCN1CCC2(CCN(C(=O)c3ccc(F)cc3)CC2)Oc2ccccc21 |  | inconclusive: 44.7 µM [inhibitor, partial curve, poor fit] |  |
| COc1cccc(-c2noc(CC3CCN(C(=O)c4ccccc4)CC3)n2)c1 |  | inconclusive: 31.6 µM [inhibitor, partial curve, poor fit] |  |
| CN1C[C@H](NC(=O)c2cnccn2)CCC[C@@H](C(=O)NCc2cc(F)cc(F)c2)CC1=O | inactive: -0.728% |  |  |
| CC(C)NC(=O)N1Cc2ccccc2OC2(CCN(Cc3ccncc3)CC2)C1 |  | inconclusive: 70.8 µM [inhibitor, single point] |  |
| CCOC(=O)[C@@H]1CN(C(=O)c2ccccc2OC(F)(F)F)[C@H]2c3cccc(F)c3O[C@@H]12 |  | inconclusive: 50.1 µM [inhibitor, partial curve, poor fit] |  |
| CC(C)CCNC(=O)c1cnc2c(c1)N(C(=O)Cc1cccc(C(F)(F)F)c1)CCC2 |  | inconclusive: 112 µM [inhibitor, single point] |  |
| CN(C)C(=O)c1ccnc(-c2nnc3ccc(N4CCCCC4)nn23)c1 |  | active: 31.6 µM |  |
| Cc1ccc(NC(=O)Nc2ccc(C)n(CC(=O)NC(C)c3cccnc3)c2=O)cc1 (stereo not given) | inactive: -21.3% |  |  |
| CCc1nc2c(c(-c3ccc(Cl)cc3)n1)CN(C(=O)c1ccccc1C)CC2 |  | inconclusive: 3.98 µM [inhibitor, full curve, poor fit] |  |
| Cc1noc(-c2ccccc2Cl)c1C(=O)NCCOc1ccccc1 |  | inconclusive: 50.1 µM [inhibitor, partial curve, poor fit] |  |
| O=C(NCCc1ccncc1)C1CN(C(=O)C2CCCC2)CC12CCOCC2 (stereo not given) | inactive: -7.15% |  |  |
| CCn1cc(CN2CCCC(COc3ccccc3C(=O)N3CCCC3)C2)c2ccccc21 (stereo not given) |  | inconclusive: 50.1 µM [inhibitor, partial curve, poor fit] |  |
| COc1cccc(C(=O)N2CCN(c3ccnc4ccnn34)CC2)c1 |  | inconclusive: 89.1 µM [inhibitor, partial curve, poor fit] |  |
| COc1ccc2c(c1)cc(C(=O)N1Cc3[nH]cnc3CC1C(=O)O)n2C (stereo not given) |  |  | inactive |
| Cc1ccsc1[C@@H]1CCN(Cc2ccc(C#CC(C)(C)O)cc2)C[C@H]1O | inactive: -32.9% |  |  |
| Cc1cccc(-c2ncc3c(n2)OCCN(c2cccc(C(F)(F)F)c2)C3=O)c1 | inactive: -16.6% [at 138 µM] |  |  |

| Compound | activity change, negative = cytotoxicity | Potency | outcome |
| --- | --- | --- | --- |
| CC(C)NC(=O)c1nc2sccn2c1-c1ccc(C(F)(F)F)cc1 |  | inconclusive: 79.4 µM [inhibitor, partial curve] |  |
| COc1cccc(C(=O)N2CCC(N3C(=O)c4c(c(C)nn4-c4ccccc4)C3C(C)C)CC2)c1 (stereo not given) |  | active: 35.5 µM |  |
| Cc1nn(-c2ccc(C(F)(F)F)cc2)c(C)c1[C@@H]1C=C[C@@H](NC(=O)c2ccc(N(C)C)cc2)C1 |  | inconclusive: 56.2 µM [inhibitor, partial curve, poor fit] |  |
| CN1C(=O)c2cccn2CC1C(=O)NCc1cccs1 (stereo not given) | inactive: -14.9% |  |  |
| CN(Cc1cccc(F)c1)C1CN(C(=O)OC(C)(C)C)C1 | inactive: -12% [at 138 µM] |  |  |
| CN(C)C(C(=O)NCc1cc(F)c(F)c(F)c1F)c1cccc(F)c1 (stereo not given) | inactive: 2.46% |  |  |
| COc1ccc(OC)c(CN2CCCn3nc(C)c(-c4cnccc4C)c32)c1 |  | active: 89.1 µM |  |
| COc1ccc(CNC(=O)c2cc(-c3cccc(F)c3)nc3c2cnn3C)cc1 |  | inconclusive: 50.1 µM [inhibitor, partial curve, poor fit] |  |
| CC(C)S(=O)(=O)NCC1Cn2cccc2CN1Cc1ccccc1 (stereo not given) |  | inconclusive: 50.1 µM [inhibitor, partial curve, poor fit] |  |
| COCCCNC(=O)c1nc2sccn2c1-c1ccc(F)cc1 |  | inconclusive: 112 µM [inhibitor, partial curve, poor fit] |  |
| O=C(c1ccc(CSc2ncccn2)o1)N1CCC(N2CCCC2=O)CC1 |  | inconclusive: 50.1 µM [inhibitor, partial curve, poor fit] |  |
| O=C(C1CCCN([S+](=O)([O-])c2cccs2)C1)N1CCC(c2ccccc2)CC1 (stereo not given) |  | inconclusive: 50.1 µM [inhibitor, partial curve, poor fit] |  |
| CCCCCC(=O)N1CCC(=O)N(CC(=O)OCC)c2ccccc2C(OC)C1 (stereo not given) |  | inconclusive: 31.6 µM [inhibitor, partial curve] |  |
| COc1cccc([S+](=O)([O-])N2CCC3(C2)NC(=O)c2ccccc2O3)c1 (stereo not given) |  | inconclusive: 56.2 µM [inhibitor, partial curve, poor fit] |  |
| O=C1NC(=NC2CCCCC2)C2(CCN(Cc3cccnc3)CC2)N1c1cc(F)cc(F)c1 |  | active: 28.2 µM |  |
| CCc1noc(CN(CC)C(=O)c2ccccc2NCc2sccc2C)n1 |  | inconclusive: 56.2 µM [inhibitor, partial curve, poor fit] |  |
| C[C@@H](NC(=O)C[C@@H]1c2nc(NC(=O)c3ccco3)sc2C[C@@H]2[C@](C)(CO)[C@H](O)CC[C@]21C)c1ccccc1 |  | inconclusive: 50.1 µM [inhibitor, partial curve, poor fit] |  |
| Cc1ccc(-n2c(C3CCN(C(=O)c4ccc(C(F)(F)F)cc4)CC3)n[nH]c2=O)cc1 |  | inconclusive: 8.91 µM [inhibitor, full curve, poor fit] |  |
| Cc1ccc(NC(=O)N2CCN(c3nnnn3-c3ccc(Cl)c(C)c3)CC2)cc1F |  | inconclusive: 44.7 µM [inhibitor, partial curve, poor fit] |  |
| Cc1noc(-c2cn(C3CCN(C(=O)C(C)Oc4ccc(Cl)cc4)CC3)nn2)n1 (stereo not given) |  | inconclusive: 15.8 µM [inhibitor, full curve, poor fit] |  |
